Among the data in publication PMC12820563, “FoxP3 forms a head-to-head dimer in vivo and stabilizes its multimerization on adjacent microsatellites” are binding signal values, retold here.

Some of the results follow.

For this test, the target named is T1, MBP-FoxP1dN (Mus musculus, UniProt P58462 326-579).
T1 sequence: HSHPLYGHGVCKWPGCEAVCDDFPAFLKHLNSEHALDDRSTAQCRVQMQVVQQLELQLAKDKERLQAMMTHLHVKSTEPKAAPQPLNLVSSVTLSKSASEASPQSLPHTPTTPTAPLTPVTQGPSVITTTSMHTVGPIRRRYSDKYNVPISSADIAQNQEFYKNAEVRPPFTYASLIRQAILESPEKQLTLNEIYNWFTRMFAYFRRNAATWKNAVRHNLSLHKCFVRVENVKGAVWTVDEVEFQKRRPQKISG
Kind of test: PD-seq (MBP pull-down with sequencing); 20 mM Tris-HCl pH 7.5, 100 mM NaCl, 1.5 mM MgCl2, 0.4 uM protein, 0.1 uM dsDNA library, 30 min, room temperature, amylose pull-down; high values mean tight binding. The note with it: protein: recombinant; tags: His6-MBP; chain copies: 2; dsDNA, one strand shown. A digest of the protocol:
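Binding is the reads-per-million enrichment of pull-down relative to input, pooled across replicates. For this, 0.4 µM His6-MBP-tagged mouse FoxP3 or FoxP1 fragment lacking the N-terminus, made in E. coli, was incubated with 0.1 µM Klenow-filled double-stranded degenerate DNA library for 30 min at room temperature in Tris pH 7.5 buffer with NaCl and MgCl2. Complexes bound to amylose resin were washed three times before proteinase K released the DNA for PCR barcoding and Illumina sequencing.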
Consider “GATGATTGTTCTCCCAGCTGATGAATTGCGATGTTCGAGTAAACAAATTTTCCTAATCTTTCTGTTCAAGCGCCATCTAC”, for which the binding signal was 1.14 RPM ratio (pull-down/input).

In the case of “GATGATTGTTCTCCCAGCTGATGAATTAGCCAGATCGAGTAAACAAATTTTCCTAATCTTTCTGTTCAAGCGCCATCTAC”, the binding signal was 0.835 RPM ratio (pull-down/input).

For the sequence “GATGATTGTTCTCCCAGCTGATGAATTAGATAGTTCGAGTAAACAAATTTTCCTAATCTTTCTGTTCAAGCGCCATCTAC”, the binding signal is 0.938 RPM ratio (pull-down/input).

Turning to “GATGATTGTTCTCCCAGCTGATGAATTCTGCTTGTCGAGTAAACAAATTTTCCTAATCTTTCTGTTCAAGCGCCATCTAC”, the binding signal was 1.19 RPM ratio (pull-down/input).

“GATGATTGTTCTCCCAGCTGATGAATTAAATCCTTCGAGTAAACAAATTTTCCTAATCTTTCTGTTCAAGCGCCATCTAC”: the binding signal was 0.91 RPM ratio (pull-down/input).

Consider “GATGATTGTTCTCCCAGCTGATGAATTGGTGCTTTCGAGTAAACAAATTTTCCTAATCTTTCTGTTCAAGCGCCATCTAC”, for which the binding signal was 1.3 RPM ratio (pull-down/input).

Regarding “GATGATTGTTCTCCCAGCTGATGAATTCTAGACATCGAGTAAACAAATTTTCCTAATCTTTCTGTTCAAGCGCCATCTAC”, the binding signal was 1.04 RPM ratio (pull-down/input).

Turning to “GATGATTGTTCTCCCAGCTGATGAATTGGGTTTGTCGAGTAAACAAATTTTCCTAATCTTTCTGTTCAAGCGCCATCTAC”, the binding signal is 1.06 RPM ratio (pull-down/input).

Turning to “GATGATTGTTCTCCCAGCTGATGAATTTCATGATTCGAGTAAACAAATTTTCCTAATCTTTCTGTTCAAGCGCCATCTAC”, the binding signal was 0.981 RPM ratio (pull-down/input).

Turning to “GATGATTGTTCTCCCAGCTGATGAATTAGGCGGATCGAGTAAACAAATTTTCCTAATCTTTCTGTTCAAGCGCCATCTAC”, the binding signal is 0.908 RPM ratio (pull-down/input).

Consider “GATGATTGTTCTCCCAGCTGATGAATTGTCGAGGTCGAGTAAACAAATTTTCCTAATCTTTCTGTTCAAGCGCCATCTAC”, for which the binding signal was 0.934 RPM ratio (pull-down/input).

Regarding “GATGATTGTTCTCCCAGCTGATGAATTGCTCGATTCGAGTAAACAAATTTTCCTAATCTTTCTGTTCAAGCGCCATCTAC”, the binding signal is 1.06 RPM ratio (pull-down/input).

Take “GATGATTGTTCTCCCAGCTGATGAATTCACAGGTTCGAGTAAACAAATTTTCCTAATCTTTCTGTTCAAGCGCCATCTAC”: the binding signal is 0.792 RPM ratio (pull-down/input).

Turning to “GATGATTGTTCTCCCAGCTGATGAATTCGTAGAGTCGAGTAAACAAATTTTCCTAATCTTTCTGTTCAAGCGCCATCTAC”, the binding signal was 0.749 RPM ratio (pull-down/input).

As to “GATGATTGTTCTCCCAGCTGATGAATTACCTGCATCGAGTAAACAAATTTTCCTAATCTTTCTGTTCAAGCGCCATCTAC”, the binding signal was 1.16 RPM ratio (pull-down/input).

“GATGATTGTTCTCCCAGCTGATGAATTAGGTGCTTCGAGTAAACAAATTTTCCTAATCTTTCTGTTCAAGCGCCATCTAC”: the binding signal was 0.948 RPM ratio (pull-down/input).

On to “GATGATTGTTCTCCCAGCTGATGAATTCATGCTTTCGAGTAAACAAATTTTCCTAATCTTTCTGTTCAAGCGCCATCTAC”, for which the binding signal was 1.28 RPM ratio (pull-down/input).

Regarding “GATGATTGTTCTCCCAGCTGATGAATTATGAAAATCGAGTAAACAAATTTTCCTAATCTTTCTGTTCAAGCGCCATCTAC”, the binding signal was 1.18 RPM ratio (pull-down/input).

As to “GATGATTGTTCTCCCAGCTGATGAATTCAGGGGATCGAGTAAACAAATTTTCCTAATCTTTCTGTTCAAGCGCCATCTAC”, the binding signal was 0.773 RPM ratio (pull-down/input).

Turning to “GATGATTGTTCTCCCAGCTGATGAATTGTTAACGTCGAGTAAACAAATTTTCCTAATCTTTCTGTTCAAGCGCCATCTAC”, the binding signal is 1.09 RPM ratio (pull-down/input).

“GATGATTGTTCTCCCAGCTGATGAATTAGGGATGTCGAGTAAACAAATTTTCCTAATCTTTCTGTTCAAGCGCCATCTAC”: the binding signal is 0.827 RPM ratio (pull-down/input).

With “GATGATTGTTCTCCCAGCTGATGAATTGACCCGTTCGAGTAAACAAATTTTCCTAATCTTTCTGTTCAAGCGCCATCTAC”, the binding signal was 0.907 RPM ratio (pull-down/input).

As for “GATGATTGTTCTCCCAGCTGATGAATTAAATTTGTCGAGTAAACAAATTTTCCTAATCTTTCTGTTCAAGCGCCATCTAC”, the binding signal was 1.06 RPM ratio (pull-down/input).

Turning to “GATGATTGTTCTCCCAGCTGATGAATTAAGTCCTTCGAGTAAACAAATTTTCCTAATCTTTCTGTTCAAGCGCCATCTAC”, the binding signal is 0.887 RPM ratio (pull-down/input).

Take “GATGATTGTTCTCCCAGCTGATGAATTGAATATTTCGAGTAAACAAATTTTCCTAATCTTTCTGTTCAAGCGCCATCTAC”: the binding signal is 0.952 RPM ratio (pull-down/input).

On to “GATGATTGTTCTCCCAGCTGATGAATTATGTGCATCGAGTAAACAAATTTTCCTAATCTTTCTGTTCAAGCGCCATCTAC”, for which the binding signal is 1.45 RPM ratio (pull-down/input).

Regarding “GATGATTGTTCTCCCAGCTGATGAATTCGCGTGGTCGAGTAAACAAATTTTCCTAATCTTTCTGTTCAAGCGCCATCTAC”, the binding signal was 0.928 RPM ratio (pull-down/input).

Regarding “GATGATTGTTCTCCCAGCTGATGAATTTCGTTCATCGAGTAAACAAATTTTCCTAATCTTTCTGTTCAAGCGCCATCTAC”, the binding signal is 0.901 RPM ratio (pull-down/input).

Take “GATGATTGTTCTCCCAGCTGATGAATTTCGTCCCTCGAGTAAACAAATTTTCCTAATCTTTCTGTTCAAGCGCCATCTAC”: the binding signal is 0.846 RPM ratio (pull-down/input).

Take “GATGATTGTTCTCCCAGCTGATGAATTCTGCAGCTCGAGTAAACAAATTTTCCTAATCTTTCTGTTCAAGCGCCATCTAC”: the binding signal was 0.831 RPM ratio (pull-down/input).

As for “GATGATTGTTCTCCCAGCTGATGAATTGCGTACCTCGAGTAAACAAATTTTCCTAATCTTTCTGTTCAAGCGCCATCTAC”, the binding signal was 1.09 RPM ratio (pull-down/input).

Regarding “GATGATTGTTCTCCCAGCTGATGAATTTTTAGCCTCGAGTAAACAAATTTTCCTAATCTTTCTGTTCAAGCGCCATCTAC”, the binding signal is 0.907 RPM ratio (pull-down/input).

Consider “GATGATTGTTCTCCCAGCTGATGAATTCGGAGCATCGAGTAAACAAATTTTCCTAATCTTTCTGTTCAAGCGCCATCTAC”, for which the binding signal was 1 RPM ratio (pull-down/input).

Regarding “GATGATTGTTCTCCCAGCTGATGAATTGAAAACATCGAGTAAACAAATTTTCCTAATCTTTCTGTTCAAGCGCCATCTAC”, the binding signal is 1.8 RPM ratio (pull-down/input).

“GATGATTGTTCTCCCAGCTGATGAATTGGGCCCATCGAGTAAACAAATTTTCCTAATCTTTCTGTTCAAGCGCCATCTAC”: the binding signal is 0.862 RPM ratio (pull-down/input).

“GATGATTGTTCTCCCAGCTGATGAATTATATGGGTCGAGTAAACAAATTTTCCTAATCTTTCTGTTCAAGCGCCATCTAC”: the binding signal is 0.903 RPM ratio (pull-down/input).

Regarding “GATGATTGTTCTCCCAGCTGATGAATTACATCCTTCGAGTAAACAAATTTTCCTAATCTTTCTGTTCAAGCGCCATCTAC”, the binding signal is 1.13 RPM ratio (pull-down/input).

For the sequence “GATGATTGTTCTCCCAGCTGATGAATTGCTCTCGTCGAGTAAACAAATTTTCCTAATCTTTCTGTTCAAGCGCCATCTAC”, the binding signal is 0.971 RPM ratio (pull-down/input).

On to “GATGATTGTTCTCCCAGCTGATGAATTGTTATGATCGAGTAAACAAATTTTCCTAATCTTTCTGTTCAAGCGCCATCTAC”, for which the binding signal was 1.68 RPM ratio (pull-down/input).

Regarding “GATGATTGTTCTCCCAGCTGATGAATTTATCACGTCGAGTAAACAAATTTTCCTAATCTTTCTGTTCAAGCGCCATCTAC”, the binding signal is 1.13 RPM ratio (pull-down/input).
